# The source gives no read counts; variants with many changes may rest on few reads.
# B1: CPEB3 Ribozyme (parent)
# chain: UAACAGGGGGCCACAGCAGAAGCGUUCACGUCGCAGCCCCUGUCAGAUUCUGGUGAAUCUGCGAAUUCUGCUGUAUAUCUC
# Variants of: B1
# Experiment: self-cleavage, relative activity (ratio to wild type); higher = more cleavage; in vitro, sequencing
# Summary of the method: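 Relative activity was defined as the cleaved/total read fraction for a variant divided by the same fraction for the unmutated ribozyme. CPEB3 self-cleaving ribozyme libraries were made by rounds of error-prone PCR, barcoded, and transcribed in vitro with T7 RNA polymerase for 5 hours at 37°C, and cleavage ran through transcription plus a 15 min DNase I step before EDTA. Illumina sequencing of template-switched reverse transcripts gave the reads, and DNA sequencing mapped the barcodes. Averages come from three batches, using variants with at least 5 reads.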
row,Variant,self-cleavage
1,U26C A56G U67C,0.17
2,U26C A56G U69A U76C,0.16
3,U26C A56G U69C U80A,0.09
4,U26C A56G U72C,0.42
5,U26C A56G U74C U80C,0.33
6,U26C A56G U78A,0.28
7,U26C A56U A77G,0.41
8,U26C A56U C62U A65G,0.12
9,U26C A56U U69C G73A,0.26
10,U26C A56U U74C,0.49
11,U26C A57C U69A,0.15
12,U26C A57G A64U A65C U76C,1.06
13,U26C A57G A65G,0.08
14,U26C A57G U60C U66C U69C,0.31
15,U26C A57G U67A U74A,0.47
16,U26C A57G U67C,0.12
17,U26C A57G U72A U78A,0.2
18,U26C A57G U74A U80C,0.46
19,U26C A57U A65G U66A C71A,0.05
20,U26C A57U U60A,0.13
21,U26C A64G A65G,0.31
22,U26C A64G C79A,0.3
23,U26C A64G U72C,0.36
24,U26C A64U A75G,0.17

row,Variant,self-cleavage
1,U26C A64U G73U,0.15
2,U26C A64U U74C,0.19
3,U26C A65C U69C,0.15
4,U26C A65G C68G,0.16
5,U26C A65G U69C,0.14
6,U26C A65G U72C U78C,0.18
7,U26C A65G U74A,0.38
8,U26C A65U U72A,0.1
9,U26C A77U U80C,0.56
10,U26C C27A A57G U60C A65G U67A,0.05
11,U26C C27A U43C U49C,0.17
12,U26C C27A U54A U60C A65G U67C,0.06
13,U26C C27G U31C U76C,0.23
14,U26C C27G U69A,0.21
15,U26C C27U A45G,0.42
16,U26C C27U U31C U72C,0.23
17,U26C C27U U43C,0.1
18,U26C C27U U54C A57G,0.13
19,U26C C29A C39U U80C,0.15
20,U26C C29G C39U,0.16
21,U26C C29G C39U A57U,0.12
22,U26C C29G C40G U48C U69A,0.05
23,U26C C29G U43C A64U U80A,0.1
24,U26C C29U C38A U49A,0.04

row,Variant,self-cleavage
1,U26C C29U G42C U66C U78C U80C,0.07
2,U26C C29U U41C U78C U80C,0.11
3,U26C C29U U43C U48C U69A U80C,0.05
4,U26C C29U U48C U54A,0.09
5,U26C C29U U67C,0.14
6,U26C C32A A45G,0.22
7,U26C C32A A45U U49C A65G,0.11
8,U26C C32A A56G,0.42
9,U26C C32A A64G U67C,0.34
10,U26C C32A G36A U72A,0.04
11,U26C C32A G70A U72C,0.16
12,U26C C32A U41G,0.26
13,U26C C32A U49C U51A,0.17
14,U26C C32A U60A,0.4
15,U26C C32A U78C,0.15
16,U26C C32U A47G U66C,0.11
17,U26C C32U C37A C40G U43A U58C,0.06
18,U26C C32U C38A U49G A64G A65U,0.08
19,U26C C32U U43C,0.1
20,U26C C32U U48A U58C,0.05
21,U26C C32U U49C U66C,0.07
22,U26C C32U U51C U66C,0.09
23,U26C C32U U54A U58C A64G U69C,0.04
24,U26C C32U U76C U80C,0.13

row,Variant,self-cleavage
1,U26C C34A C40U,0.19
2,U26C C34A U49A,0.13
3,U26C C34G U67C U80C,0.08
4,U26C C34U A65G,0.19
5,U26C C34U U43C A64U,0.3
6,U26C C34U U54G U66C,0.06
7,U26C C34U U66C,0.13
8,U26C C34U U69A,0.2
9,U26C C37A U43A G46A U54C,0.33
10,U26C C37U C71G,0.13
11,U26C C37U G73U,0.42
12,U26C C37U U41A U54C A75U,0.19
13,U26C C38A A45U A56G U60A U67C,0.11
14,U26C C38A A56G C68A,0.15
15,U26C C38A A57G,0.09
16,U26C C38A U48C,0.08
17,U26C C38A U66C,0.29
18,U26C C38U A56G,0.17
19,U26C C38U A56G G73U,0.28
20,U26C C38U A57G C81U,0.21
21,U26C C38U U49C C50U U51C U60C U78C,0.05
22,U26C C38U U58G U69C U80C,0.09
23,U26C C38U U72A,0.13
24,U26C C39A U51C,0.28

row,Variant,self-cleavage
1,U26C C39A U51C U78C,0.05
2,U26C C39G A64G U72C,0.07
3,U26C C39U U54C,0.23
4,U26C C40G C81U,0.14
5,U26C C40U A45G,0.14
6,U26C C40U A47G,0.18
7,U26C C40U G53A,0.26
8,U26C C40U U41C U66C U69C A75G,0.06
9,U26C C40U U43A U51C A64G,0.1
10,U26C C40U U51A,0.35
11,U26C C40U U51G U54C A56G U80C,0.18
12,U26C C40U U58A,0.22
13,U26C C40U U69G,0.15
14,U26C C44A U51C,0.31
15,U26C C44A U67A,0.09
16,U26C C44U U49C C62U,0.06
17,U26C C50G A65U,0.13
18,U26C C59A U67A U80G,0.1
19,U26C C59G U80G,0.2
20,U26C C59U U78C,0.45
21,U26C C62U U67C,0.1
22,U26C C62U U72C,0.21
23,U26C C62U U72C U76A,0.12
24,U26C C62U U74G U78A,0.03

row,Variant,self-cleavage
1,U26C C71A U72C,0.09
2,U26C G30A A45G,0.1
3,U26C G30A C34G,0.09
4,U26C G30A G63A,0.22
5,U26C G30A U31A A47C,0.23
6,U26C G30A U41A U43C U58A A64U U80C,0.11
7,U26C G30A U54C,0.1
8,U26C G30A U60G,0.15
9,U26C G30A U69C,0.2
10,U26C G30C U41C A45U,0.25
11,U26C G30U A35U U67G U72G,0.08
12,U26C G30U U43C U67G,0.06
13,U26C G30U U60C A64G,0.31
14,U26C G30U U69A U72C,0.12
15,U26C G30U U80C,0.19
16,U26C G33A A35U,0.17
17,U26C G33A A35U U43A U80C,0.13
18,U26C G33A A57U A64G U67A C71G,0.09
19,U26C G33A U41C A45G,0.21
20,U26C G33A U41C U49C U66C U74C,0.09
21,U26C G33A U43C G46A,0.06
22,U26C G33A U48A,0.12
23,U26C G33C C34U A75U,0.17
24,U26C G33U C34G A75C,0.28

row,Variant,self-cleavage
1,U26C G33U C40U U80C,0.1
2,U26C G33U C79U,0.38
3,U26C G33U U66C G73A U78A,0.1
4,U26C G33U U72C,0.06
5,U26C G36A C62A,0.13
6,U26C G36A G55A,0.07
7,U26C G36A U60C A77U,0.1
8,U26C G36C U51C U69C A77U,0.14
9,U26C G36C U67C U78G,0.09
10,U26C G36U A64G U76C,0.16
11,U26C G36U U41A A56C U67C,0.07
12,U26C G42A U43C A47G A56U,0.12
13,U26C G42A U43C U69C,0.05
14,U26C G42C A75U,0.12
15,U26C G42C G73A C79U U80G,0.29
16,U26C G46A A65U A77G,0.11
17,U26C G46U G61A,0.17
18,U26C G52A U67A A75U U80C,0.21
19,U26C G52C U67C,0.09
20,U26C G53A C62U,0.13
21,U26C G53A U54C U74C U78A,0.37
22,U26C G53C A56U U67A,0.09
23,U26C G55A A64U A77G,0.07

# Reference: the RNAGym collection of RNA variant scans (doi:10.1093/nar/gkz1192)
